According to PubChem BioAssay AID1347428 (National Center for Advancing Translational Sciences (NCATS), 2020):
Among all 91,000 compounds or so, about 290 (0.32%) were called active. The inconclusive results got no clear call from the source; some entries with a clear call stand among them for comparison. The call rests on the fitted dose curve; in most records, active means well fitted inhibition curve with a large enough effect; inconclusive means small, poorly fitted or top-dose-only effect; inactive means no such curve, though single readings can be large or run the other way. A potency beside an inconclusive call is a rough fit, not a confirmed value.

These molecules were tested against Single-stranded DNA cytosine deaminase (Homo sapiens) (UniProt Q9GZX7) (assay: Primary qHTS assay for inhibitors of Activation Induced Cytidine Deaminase (AID): AID signal). Details: AID deamination FRET fluorescence, UDG-coupled, 4 h; activity change, negative = inhibition: at 115 µM (top of the series).
Further: nearly all actives have a fitted effect of over 25% in size.
On the % scale 0 is the no-effect control and ±100 the full control effect; potency means the concentration at half of the fitted maximal effect; tags describe the fitted curve by direction and shape.

UniProt Q9GZX7, sequence (Q9GZX7 whole entry, looked up): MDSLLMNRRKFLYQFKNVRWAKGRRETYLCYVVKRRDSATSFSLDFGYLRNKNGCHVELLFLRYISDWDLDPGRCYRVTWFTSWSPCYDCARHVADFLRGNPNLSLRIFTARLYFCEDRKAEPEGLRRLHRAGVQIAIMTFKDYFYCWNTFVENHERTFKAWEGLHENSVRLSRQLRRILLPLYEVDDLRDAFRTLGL

Structure (SMILES)	activity change, negative = inhibition	Potency
O=C(CCc1nc(-c2ccncc2)no1)Nc1ccc(N2CCOCC2)cc1	inactive: -6.24%	–
Cn1c(C=C(C#N)C#N)ccc1-c1cc(Cl)ccc1Cl	inactive: -10.5%	–
COc1ccc2cc3cc(C(=O)Nc4cc(C)c(Cl)cc4OC)oc3nc2c1	inactive: 3.72%	–
O=C(COc1cc(Cl)cc(Cl)c1)N1CCNC1=O	inactive: -6.96%	–
Cc1ccc(S(=O)(=O)CCC(=O)Nc2ccc(OC(F)(F)F)cc2)cc1	–	inconclusive: 100 µM [inhibitor, single point]
COc1ccccc1CNC(=O)CN(C)c1nn2c(=O)cc(C)nc2s1	inactive: 8.63%	–
COc1ccccc1NC(=O)CSc1nnc(NC(=O)Nc2ccc(C)cc2)s1	inactive: 7.08%	–
CC(=O)c1ccc(N2CCN(C(=O)CCC(=O)Nc3ccc4nc(N5CCCCC5)cc(C)c4c3)CC2)cc1	–	inconclusive: 25.1 µM [inhibitor, full curve, poor fit]
Cc1ccccc1Cc1c(C)nc2nc(SCC(=O)N(C)c3ccccc3)nn2c1C	–	inconclusive: 79.4 µM [inhibitor, partial curve, poor fit]
CN(c1ccc(F)cc1)S(=O)(=O)N1CCCC(C(=O)NCc2cccc(Br)c2)C1 (centres undefined)	–	inconclusive: 50.1 µM [inhibitor, partial curve, poor fit]
CCOc1cc(/C=C(/C#N)C(=O)OCCOC)cc(Cl)c1OC	inactive: -9.95%	–
CCCn1c(SCc2nc(-c3ccccc3OCC)no2)nnc1-c1ccc(Cl)cc1	–	inconclusive: 22.4 µM [inhibitor, full curve, poor fit]
COCCn1cc(C(=O)NCCc2c(C)cc(C)cc2C)ccc1=O	inactive: -4.46%	–
COC(=O)c1ccc2c(c1)N(CC(=O)Nc1ccc(OC)c(Cl)c1)C(=O)c1ccccc1S2	inactive: 63.3%	–
Cc1ccc(-n2nc3c(N4CCCC(C(=O)NCc5ccc(Cl)cc5)C4)nnc(C)c3c2C)cc1 (centres undefined)	–	inconclusive: 79.4 µM [inhibitor, single point]
COc1cccc(C(=O)NC(=NCCc2c[nH]c3ccc(OC)cc23)Nc2nc(C)cc(C)n2)c1	–	inconclusive: 14.1 µM [inhibitor, partial curve, poor fit]
CCc1cnc2c(c1SCc1ccccc1C)c(=O)n(C)c(=O)n2C	–	inconclusive: 79.4 µM [inhibitor, partial curve, poor fit]
O=C(Nc1nc2ccc(Cl)cc2s1)c1cc(=O)c2ccccc2o1	–	inconclusive: 39.8 µM [inhibitor, full curve, poor fit]
Cc1ccc(C(NC(=O)CSc2nnnn2C2CCCCC2)c2cccs2)cc1 (centres undefined)	inactive: -13.2%	–
COc1ccc(NC(=O)c2oc3ccccc3c2NC(=O)C23CC4CC(CC(C4)C2)C3)c(OC)c1	–	inconclusive: 89.1 µM [inhibitor, partial curve, poor fit]
O=C(C1CCC(Cn2c(=O)c3sccc3n(Cc3ccccc3)c2=O)CC1)N1CCCCC1 (centres undefined)	–	inconclusive: 22.4 µM [inhibitor, full curve, poor fit]
Cc1ccc(C)c(N2CCN(C(=O)CCNS(=O)(=O)c3ccc4c(c3)CCN4C(=O)C3CC3)CC2)c1	inactive: 0.245%	–
Cc1cccc(C(=O)Nc2ccc3oc(=O)ccc3c2)c1	inactive: -9.17%	–

Structure (SMILES)	activity change, negative = inhibition	Potency
Cc1cccc(N2CCN(C(=O)c3ccc4c(Cl)c5c(nc4c3)CCCC5)CC2C)c1 (centres undefined)	–	inconclusive: 28.2 µM [inhibitor, partial curve, poor fit]
CC1CCN(C(=O)c2ccc3c(c2)N(Cc2ccccc2)C(=O)c2ccccc2S3(=O)=O)CC1	–	inconclusive: 28.2 µM [inhibitor, full curve, poor fit]
COc1ccc(N(CC(=O)Nc2ccccc2C(=O)NCC2CCCO2)S(C)(=O)=O)cc1OC (centres undefined)	inactive: -4.63%	–
CCc1ccc(NC(=O)CSC2=NS(=O)(=O)c3ccccc3N2Cc2ccccc2)cc1	inactive: -6.97%	–
O=C(O)c1ccc(I)c(Br)c1	inactive: -4.24%	–
Cc1ccc(-c2nc3sc(CCNC(=O)c4ccco4)c(C)n3n2)cc1	–	inconclusive: 89.1 µM [inhibitor, single point]
C/C(=N\O)c1ccc(OCC(O)CNC(C)C)cc1 (centres undefined)	inactive: -5.96%	–
Cc1ccc(C(=O)Nc2cc3cc(Cl)ccc3oc2=O)cc1	inactive: 8.82%	–
O=C1c2ccccc2C(=O)C1(c1ccccc1)N1CCN(c2cccc(C(F)(F)F)c2)CC1	–	active: 25.1 µM
Cc1ccccc1-c1nnc(SCC(=O)N2CCCc3ccccc32)o1	–	inconclusive: 17.8 µM [inhibitor, partial curve, poor fit]
COc1ccc(-c2nc(C)c(CCNC(=O)c3cccs3)s2)cc1	–	inconclusive: 20 µM [inhibitor, partial curve, poor fit]
Cc1cccc(NC(=O)C(C#N)C(=O)CC(C)C)c1 (centres undefined)	inactive: -2.15%	–
FC(F)(F)c1cccc(CSc2nnc(SCc3cccc(C(F)(F)F)c3)s2)c1	inactive: -13%	–
Cc1cccc(Cn2c(-c3cccs3)nc3ccccc32)c1	–	inconclusive: 79.4 µM [inhibitor, partial curve, poor fit]
CCN(CC)S(=O)(=O)c1ccc(NC(=O)[C@H](CCSC)N2Cc3ccccc3C2=O)cc1	–	inconclusive: 50.1 µM [inhibitor, partial curve, poor fit]
Cc1ccc(S(=O)(=O)c2nnn3c2nc(N2CCCCC2)c2sccc23)cc1	–	inconclusive: 11.2 µM [inhibitor, full curve, poor fit]
COC(=O)c1ccc(F)c(NC(=O)CCc2c(C)nc(C)[nH]c2=O)c1	inactive: -0.469%	–
CN1CCc2nc3sc(C(=O)Nc4c(F)cccc4F)c(N)c3cc2C1	inactive: 188%	–
COc1ccc(C(=O)Nc2nc3nc(C)c(Cl)c(=O)n3[nH]2)cc1	inactive: -5.59%	–
CC(=O)c1ccc(OC(=O)C2(c3ccccc3)CCC2)cc1	inactive: -2.67%	–
Cc1oc(-c2ccccc2Cl)nc1CS(=O)(=O)CC(=O)NC(C)CCc1ccccc1 (centres undefined)	–	active: 20 µM
CN(C)c1ccc(CN(Cc2ccco2)C(=O)c2ccc(F)cc2)cc1	–	inconclusive: 50.1 µM [inhibitor, partial curve, poor fit]
CC(=O)Nc1ccc(S(=O)(=O)Nc2nc3n(n2)C(c2ccccc2)C=C(c2ccc(Cl)cc2)N3)cc1 (centres undefined)	–	inconclusive: 56.2 µM [inhibitor, partial curve, poor fit]

Structure (SMILES)	activity change, negative = inhibition	Potency
Cc1cc(SCC(=O)Nc2nsc(-c3ccc(C(C)(C)C)cc3)n2)nc2ccccc12	–	inconclusive: 39.8 µM [inhibitor, full curve, poor fit]
CCc1cccc(NC(=O)C(Cc2ccccc2)NS(=O)(=O)c2ccc3c(c2)c(=O)n(C)c(=O)n3C)c1 (centres undefined)	–	inconclusive: 44.7 µM [inhibitor, partial curve, poor fit]
CC1CCCCN1C(=O)CSc1nc(-c2cccs2)nc2ccccc12 (centres undefined)	–	inconclusive: 50.1 µM [inhibitor, partial curve, poor fit]
Cc1ccc(C(=O)/C=C/c2cn(CC(O)CN3CCCCCC3)c3ccccc23)cc1 (centres undefined)	–	inconclusive: 56.2 µM [inhibitor, partial curve, poor fit]
O=S(=O)(NCCc1ncc2ccccn12)c1ccc(Br)cc1	inactive: -12.5%	–
Cc1ccc(C)c(N2CCN(C(=O)C3CCCN(S(=O)(=O)c4cccc5nonc45)C3)CC2)c1 (centres undefined)	inactive: -10.3%	–
Cc1ccc(Cn2c(CN3CCC(C(=O)NCC(C)c4ccccc4)CC3)cc3ccccc32)cc1 (centres undefined)	–	inconclusive: 79.4 µM [inhibitor, partial curve, poor fit]
COc1ccccc1CN(Cc1ccco1)c1cnc(S(C)(=O)=O)nc1C(=O)Nc1ccccc1Cl	–	inconclusive: 56.2 µM [inhibitor, partial curve, poor fit]
Cc1cc(Cl)ccc1NC(=O)CN1C(=O)COc2ccc(S(=O)(=O)N3CCC(C)CC3)cc21	inactive: 6.45%	–
O=C(CCCn1c(=O)[nH]c2ccsc2c1=O)N1CCN(c2cccc(C(F)(F)F)c2)CC1	inactive: -13.7%	–
CC[N+](C)(CC)CCCOC(=O)C1(c2ccccc2)CCCC1	inactive: -5.89%	–
CCCC1=Nc2cc(C(=O)NCC(C)c3ccccc3)ccc2Sc2ccccc21 (centres undefined)	–	inconclusive: 44.7 µM [inhibitor, partial curve, poor fit]
CCN(CC)CC1CCN(C(=O)CCc2c[nH]c3ccccc23)CC1	inactive: 2.39%	–
CCc1ccccc1N1C(=O)N(CC(=O)c2ccc(Cl)cc2)c2ccccc2S1(=O)=O	–	inconclusive: 39.8 µM [inhibitor, partial curve, poor fit]
COC(=O)Cc1c(C)c2ccc(OCc3cccc(Cl)c3)cc2oc1=O	inactive: -4.26%	–
O=C(CSc1ncc(-c2ccccc2)[nH]1)Nc1ccc(F)cc1F	–	inconclusive: 89.1 µM [inhibitor, single point]
CCCc1cc(NCc2ccccn2)n2ncc(-c3ccccc3)c2n1	inactive: -11.1%	–
O=C(CCCCn1c(=O)c2ccccc2n(CC(=O)Nc2ccc(F)cc2F)c1=O)NCc1ccccc1Cl	inactive: 10.6%	–
Cc1ccc2c(C)c(C(=O)N(Cc3ccc(Cl)cc3)C3CCS(=O)(=O)C3)oc2c1 (centres undefined)	–	inconclusive: 39.8 µM [inhibitor, full curve, poor fit]
N#C/C(=C\c1ccc(-c2cc(Cl)ccc2Cl)o1)C(=O)Nc1cccc2ncccc12	–	inconclusive: 44.7 µM [inhibitor, partial curve]
O=C(CSc1nccn1-c1ccc(F)cc1)Nc1ccc(OC(F)(F)F)cc1	–	inconclusive: 39.8 µM [inhibitor, full curve, poor fit]
O=C(OCC(=O)C12CC3CC(CC(C3)C1)C2)c1ccc([N+](=O)[O-])s1	–	inconclusive: 50.1 µM [inhibitor, partial curve, poor fit]
CN(C)c1ccc(C(CNC(=O)c2ccc(C(C)(C)C)cc2)N2CCOCC2)cc1 (centres undefined)	–	inconclusive: 56.2 µM [inhibitor, partial curve, poor fit]
